# In the BET-seq Pho4 binding data (Le et al. 2018):
# Some of the results follow. Values were computed here from the reads of four pooled replicates and scatter widely.
# Target: T1, Pho4 (S. cerevisiae) (UniProt P07270)
# T1 sequence: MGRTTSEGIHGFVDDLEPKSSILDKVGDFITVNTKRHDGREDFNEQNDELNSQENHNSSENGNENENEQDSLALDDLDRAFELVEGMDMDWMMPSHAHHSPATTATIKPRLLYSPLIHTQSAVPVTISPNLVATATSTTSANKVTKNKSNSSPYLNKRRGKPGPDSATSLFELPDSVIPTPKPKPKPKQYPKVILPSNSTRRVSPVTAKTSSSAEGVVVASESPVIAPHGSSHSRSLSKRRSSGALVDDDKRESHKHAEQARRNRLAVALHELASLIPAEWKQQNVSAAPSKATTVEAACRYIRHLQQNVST
# Assay: relative binding free energy (BET-seq); higher = weaker binding
# Details: reference: library average
row,Sequence,relative binding free energy
1,TCGGTCACGTGGTGCA,0.03 kcal/mol
2,TAGGACACGTGCGGTA,0 kcal/mol
3,GTGGTCACGTGCAGTT,0.16 kcal/mol
4,TCGGGCACGTGTGAGG,0.01 kcal/mol
5,TGTTGCACGTGGGTTT,-0.04 kcal/mol
6,TCGGCCACGTGGAGGG,-0.23 kcal/mol
7,AGAGGCACGTGGGGAA,-0.23 kcal/mol
8,CAGGCCACGTGAGGTG,0.02 kcal/mol
9,TTGGTCACGTGAATAA,0.31 kcal/mol
10,GTTTCCACGTGTTCGG,0.23 kcal/mol
11,AATGTCACGTGATCGG,0.17 kcal/mol
12,TAATGCACGTGGCGTG,-0.05 kcal/mol
13,TTGTACACGTGATTAG,0.08 kcal/mol
14,TTCAGCACGTGTCAGG,-0.04 kcal/mol
15,AGGCGCACGTGTAAGT,-0.01 kcal/mol
16,GTGTGCACGTGTTTCT,0.01 kcal/mol
17,TGAGGCACGTGGCTGA,-0.2 kcal/mol
18,GGTGCCACGTGTTTAT,-0.1 kcal/mol
19,TTGTACACGTGTGTTC,0.15 kcal/mol
20,GGGGTCACGTGGCTGA,0.05 kcal/mol
21,AATGGCACGTGTCAGG,-0.13 kcal/mol
22,TATAGCACGTGGATAG,-0.07 kcal/mol
23,TAAATCACGTGGAGTA,0.13 kcal/mol

row,Sequence,relative binding free energy
1,CGGTGCACGTGGAACG,0.04 kcal/mol
2,CTGTGCACGTGAAGTT,0.08 kcal/mol
3,ATGCACACGTGGGGAG,-0.15 kcal/mol
4,TTAAGCACGTGTAGAA,0.03 kcal/mol
5,GGTTCCACGTGGCAGG,-0.02 kcal/mol
6,TTAGACACGTGAGCTG,0.36 kcal/mol
7,GTATGCACGTGGAAGT,0.08 kcal/mol
8,GAGCTCACGTGGTTGT,0.39 kcal/mol
9,ATGTCCACGTGCGTGG,-0.09 kcal/mol
10,TAGATCACGTGAAGGG,0.42 kcal/mol
11,AATTTCACGTGTCTTT,0.26 kcal/mol
12,CGTTGCACGTGCTTGG,-0.21 kcal/mol
13,TCTTTCACGTGTAGGA,0.25 kcal/mol
14,TTCTGCACGTGCAGTG,-0.13 kcal/mol
15,TCAGACACGTGTGGTG,0.08 kcal/mol
16,GGGATCACGTGTGCAT,0.16 kcal/mol
17,GGGTGCACGTGCGGTT,-0.02 kcal/mol
18,ATTAGCACGTGTTATT,-0.01 kcal/mol
19,GGTTTCACGTGAAGTG,0.37 kcal/mol
20,TTCTACACGTGTTGGG,-0.02 kcal/mol
21,TTGTACACGTGTTATC,0.11 kcal/mol
22,AGGGCCACGTGGGCAT,-0.18 kcal/mol
23,TCTATCACGTGGCGTT,0.03 kcal/mol

row,Sequence,relative binding free energy
1,CTGTTCACGTGTCTGG,0.23 kcal/mol
2,ATATTCACGTGAATTA,0.46 kcal/mol
3,GTGATCACGTGGGGTG,-0.05 kcal/mol
4,GATGTCACGTGTAGAG,0.15 kcal/mol
5,TATTACACGTGATTGT,0.21 kcal/mol
6,TGGGACACGTGTGTAG,0.08 kcal/mol
7,CGGGCCACGTGGTAGG,-0.07 kcal/mol
8,CTTTTCACGTGGGAGG,0.15 kcal/mol
9,CGGGACACGTGTTAGG,-0.02 kcal/mol
10,GTTTGCACGTGGTAAA,0.03 kcal/mol
11,GGGTACACGTGGGTAT,0.11 kcal/mol
12,GTGGGCACGTGCGTGA,-0.13 kcal/mol
13,CGTGGCACGTGGGACT,-0.14 kcal/mol
14,TGGTTCACGTGATAAG,0.38 kcal/mol
15,GCTGTCACGTGGGAGT,0.05 kcal/mol
16,TGTGGCACGTGACGAG,0.05 kcal/mol
17,TGTCTCACGTGTCTGT,0.19 kcal/mol
18,AGTTACACGTGGAGGC,-0.05 kcal/mol
19,TGAACCACGTGTAGGG,-0.03 kcal/mol
20,ATGTGCACGTGTGGCC,0.01 kcal/mol
21,TATCGCACGTGGTAGG,-0.17 kcal/mol
22,AGTGTCACGTGATGCA,0.12 kcal/mol
23,TTTGACACGTGCGGGC,-0.03 kcal/mol

row,Sequence,relative binding free energy
1,TGGAGCACGTGATGTG,0 kcal/mol
2,TATCACACGTGTGTTG,-0.01 kcal/mol
3,TCTTCCACGTGGTGTG,-0.04 kcal/mol
4,TTGTTCACGTGGTTCT,0.15 kcal/mol
5,TGAAGCACGTGGCAAG,0.04 kcal/mol
6,GTTGGCACGTGCATAT,-0.23 kcal/mol
7,GAACGCACGTGGTATG,-0.11 kcal/mol
8,TGGCTCACGTGTTAGA,0.32 kcal/mol
9,GAGTCCACGTGGCGTG,0.05 kcal/mol
10,CTTGTCACGTGTCGTG,0.08 kcal/mol
11,AGCTTCACGTGGTGCT,0.16 kcal/mol
12,ATAGGCACGTGTGGTG,-0.15 kcal/mol
13,ATCTGCACGTGGTCTT,0.02 kcal/mol
14,TAGGACACGTGTCGGT,0.06 kcal/mol
15,CGGGGCACGTGGAGTA,-0.09 kcal/mol
16,TTCGACACGTGTGCGT,-0.05 kcal/mol
17,TGGGGCACGTGGACGG,-0.21 kcal/mol
18,AAGTGCACGTGAATGA,0.21 kcal/mol
19,TTGAGCACGTGAGGCT,0.19 kcal/mol
20,TTTAGCACGTGTAGGC,-0.03 kcal/mol
21,AACGTCACGTGTAGTG,0.23 kcal/mol
22,TGGGACACGTGATGCT,0.18 kcal/mol
23,GGCGCCACGTGGTAGG,-0.04 kcal/mol

row,Sequence,relative binding free energy
1,TCTTGCACGTGGCAGG,-0.05 kcal/mol
2,ATAAGCACGTGTTTTG,-0.08 kcal/mol
3,CGACGCACGTGTGTGT,-0.1 kcal/mol
4,TGAAACACGTGGCAGG,0.05 kcal/mol
5,AATAGCACGTGGGCTA,-0.16 kcal/mol
6,CGAGACACGTGTTGTA,0.12 kcal/mol
7,GGGGTCACGTGGGCAG,0.1 kcal/mol
8,ATGTTCACGTGTTTGC,0.13 kcal/mol
9,TTTATCACGTGACAGT,0.19 kcal/mol
10,TTTAGCACGTGGTATG,-0.17 kcal/mol
11,GCGAGCACGTGTATGT,-0.02 kcal/mol
12,GATGTCACGTGGGGAG,-0.01 kcal/mol
13,GGAGGCACGTGGCAGT,-0.1 kcal/mol
14,TATGGCACGTGTTAAT,-0.02 kcal/mol
15,TGATGCACGTGTGCGT,-0.04 kcal/mol
16,TGATGCACGTGACTGT,-0.01 kcal/mol
17,ACTGTCACGTGAGAGT,0.2 kcal/mol
18,TGGTCCACGTGTGGAC,0.26 kcal/mol
19,CGTTACACGTGAGTTG,0.2 kcal/mol
20,GTTTACACGTGTCGTG,0.19 kcal/mol
21,AGGTTCACGTGGCATT,0.11 kcal/mol
22,TGCACCACGTGTGTTT,0.11 kcal/mol
23,AGTATCACGTGTTTGC,-0.02 kcal/mol
